Results as given in PubChem BioAssay AID1259407 (Chemical Carcinogenesis Research Information System (CCRIS), 2018).
“Also recorded” adds a separate entry of the source. The source holds more than one record for some entries. The list is limited to them. The rule behind the calls is not given here. An entry can have further records. Values that stand side by side do not match, cause unknown; they may come from other doses, times, organisms or constructs than stated. Records carry a tag for their origin. The letters are not those of the source and start again with each entry. Brackets with × count equal records among those shown.

Tested on: CCRIS mutagenicity, Ames/micronucleus/aberration tests
Assay: CCRIS mutagenicity studies
[1] = Test System: AMES SALMONELLA TYPHIMURIUM, Strain/Indicator: TA98, Metabolic Activation: NONE, Method: STANDARD PLATE
[2] = Test System: AMES SALMONELLA TYPHIMURIUM, Strain/Indicator: TA100, Metabolic Activation: NONE, Method: STANDARD PLATE
[3] = Test System: AMES SALMONELLA TYPHIMURIUM, Strain/Indicator: TA100, Metabolic Activation: RAT, LIVER, S-9, AROCLOR 1254, Method: STANDARD PLATE
[4] = Test System: AMES SALMONELLA TYPHIMURIUM, Strain/Indicator: TA98, Metabolic Activation: NONE, Method: PREINCUBATION
[5] = Test System: AMES SALMONELLA TYPHIMURIUM, Strain/Indicator: TA1537, Metabolic Activation: NONE, Method: PREINCUBATION
[6] = End Point: IN VITRO CHROMOSOMAL ABERRATIONS, Test System: CHO CELLS, Metabolic Activation: RAT, LIVER, S-9, AROCLOR 1254
[7] = Test System: MOUSE LYMPHOMA, Strain/Indicator: L5178Y (TK+/TK-), Metabolic Activation: RAT, LIVER, S-9, AROCLOR 1254, Method: SUSPENSION/PLATE
[8] = Test System: AMES SALMONELLA TYPHIMURIUM, Strain/Indicator: TA100, Metabolic Activation: NONE, Method: PREINCUBATION
[9] = End Point: IN VITRO CHROMOSOMAL ABERRATIONS, Test System: CHL CELLS, Metabolic Activation: NONE
[10] = End Point: IN VITRO CHROMOSOMAL ABERRATIONS, Test System: CHO CELLS, Metabolic Activation: NONE

CCCCB(CCCC)CCCC
mutagenic call [1]: active; positive and inactive; negative | mutagenic call [2]: inactive; negative and active; positive | mutagenic call [3]: inactive; negative and active; positive

ClCC1CO1 (stereo not drawn)
mutagenic call [4]: active; positive [study A] and inactive; negative [study B] | mutagenic call [3]: inactive; negative [study A] and active; positive [study B] | mutagenic call [5]: active; positive [study A] and inactive; negative [study B]

O=C(c1ccccc1)C(O)c1ccccc1 (stereo not drawn)
mutagenic call [6]: inactive; negative; precipitation occurred at 500, 1000, 1500, and 2000 ug/ml; also recorded: inactive; negative; precipitation occurred at all doses | mutagenic call [7]: inactive; negative [study A] and active; positive [study B]

ClC(Cl)C(Cl)(Cl)Cl
mutagenic call (End Point: IN VITRO CHROMOSOMAL ABERRATIONS, Test System: CHINESE HAMSTER LUNG FIBROBLAST CELLS (CHL/IU), Metabolic Activation: NONE): active; positive (ploidy); authors report a weakly positive response for structural aber; also recorded: inactive; negative; authors report a weakly positive response for ploidy; also recorded: inactive; negative; authors report a weakly positive response for both structural changes

NN
mutagenic call [4]: inactive; negative and active; positive | mutagenic call [8]: inactive; negative and active; positive

Cc1c(N=C=O)cccc1N=C=O
mutagenic call [9]: active; positive (structural and ploidy changes) (2×); also recorded: inactive; negative; authors report equivocal results for ploidy changes at highest dose | mutagenic call [10]: inactive; negative; precipitation occurred at 500 and 1000 ug/ml; also recorded: active; positive; weak response; precipitation occurred at all doses; also recorded: active; positive; precipitation occurred at 600, 800 and 1000 ug/ml | mutagenic call (Test System: AMES SALMONELLA TYPHIMURIUM, Strain/Indicator: TA98, Metabolic Activation: RAT LIVER S-9, PHENOBARBITAL AND BETA-NAPHTHOFLAVONE, Method: PREINCUBATION): inactive; negative and active; positive | mutagenic call (Test System: AMES SALMONELLA TYPHIMURIUM, Strain/Indicator: TA100, Metabolic Activation: RAT LIVER S-9, PHENOBARBITAL AND BETA-NAPHTHOFLAVONE, Method: PREINCUBATION): inactive; negative and active; positive

Cc1c(N(C)CS(=O)(=O)O)c(=O)n(-c2ccccc2)n1C
mutagenic call [4]: active; positive [study A] and inactive; negative [study B] | mutagenic call [8]: active; positive [study A] and inactive; negative [study B]

CC(N)c1ccccc1.CC(N)c1ccccc1.[Cl][Pt][Cl] (stereo not drawn)
mutagenic call (Test System: AMES SALMONELLA TYPHIMURIUM, Strain/Indicator: TA92, Metabolic Activation: NONE, Method: STANDARD PLATE): active; positive and inactive; negative

c1ccc(NNc2ccccc2)cc1
mutagenic call (Test System: AMES SALMONELLA TYPHIMURIUM, Strain/Indicator: TA98, Metabolic Activation: RAT, LIVER, S-9, AROCLOR 1254, Method: STANDARD PLATE): inactive; negative (2×) and active; positive | mutagenic call (Test System: AMES SALMONELLA TYPHIMURIUM, Strain/Indicator: TA1535, Metabolic Activation: MOUSE, LIVER, S-9, AROCLOR 1254, Method: STANDARD PLATE): inactive; negative (2×) and active; positive

CN(C)c1ccc(Cc2ccc(N(C)C)cc2)cc1
mutagenic call (Test System: AMES SALMONELLA TYPHIMURIUM, Strain/Indicator: TA98, Metabolic Activation: MOUSE, LIVER, S-9, AROCLOR 1254, Method: STANDARD PLATE): inactive; negative (2×) and active; positive | mutagenic call (Test System: MOUSE LYMPHOMA, Strain/Indicator: L5178Y (TK+/TK-), Metabolic Activation: NONE, Method: SUSPENSION/PLATE): inactive; negative and active; positive

CCCCC(CC)COC(=O)c1ccccc1C(=O)OCC(CC)CCCC (stereo not drawn)
mutagenic call [10]: inactive; negative; precipitation occurred at 500, 1600, and 5000 ug/ml; also recorded: inactive; negative; precipitation occurred at all doses | mutagenic call [6]: inactive; negative; precipitation occurred at 500, 1600, and 5000 ug/ml; also recorded: inactive; negative; precipitation occurred at all doses

ClCc1cccnc1
mutagenic call (Test System: E. COLI, Strain/Indicator: WP2 UVRA, Metabolic Activation: HAMSTER, LIVER, S-9, AROCLOR 1254, Method: STANDARD PLATE): inactive; negative (2×) and active; positive | mutagenic call (Test System: E. COLI, Strain/Indicator: WP2 UVRA, Metabolic Activation: HAMSTER, LIVER, S-9, Method: STANDARD PLATE): inactive; negative (2×) and active; positive | mutagenic call (Test System: E. COLI, Strain/Indicator: WP2 UVRA, Metabolic Activation: MOUSE, LIVER, S-9, Method: STANDARD PLATE): inactive; negative (2×) and active; positive

c1cscn1
mutagenic call [1]: active; positive [study A] and inactive; negative [study B] | mutagenic call [2]: active; positive [study A] and inactive; negative [study B] | mutagenic call [3]: active; positive [study A] and inactive; negative [study B]

O=[As]O
mutagenic call (End Point: IN VITRO MICRONUCLEUS, Test System: HUMAN FIBROBLAST, HFW CELLS, Metabolic Activation: NONE): active; positive (mainly kinetochore-positive mn); also recorded: inactive; positive (mainly kinetochore-negative mn) | mutagenic call (End Point: IN VIVO MICRONUCLEUS, Test System: BONE MARROW POLYCHROMATIC ERYTHROCYTES, Species: MOUSE, Strain/Sex: BALB/C/MALE, Route: IP INJECTION): inactive; negative; increase in micronucleated polychromatic erythrocytes but not signific; also recorded: active; positive; also recorded: inactive; negative | mutagenic call (End Point: IN VIVO MICRONUCLEUS, Test System: BONE MARROW POLYCHROMATIC ERYTHROCYTES, Species: MOUSE, Strain/Sex: CBA/MALE, Route: IP INJECTION): inactive; negative and active; positive

COP(=O)(OC)OC=C(Cl)Cl
mutagenic call [2]: inactive; negative [study A] and active; positive [study B] and active; positive [study C]

O=NN1CN2CN(C1)CN(N=O)C2
mutagenic call [9]: inactive; negative; authors report equivocal results for structural changes at 0.05 mg/ml; also recorded: active; positive (structural and ploidy changes)

C=CCc1ccc2c(c1)OCO2
mutagenic call [7]: active; positive [study A] and inactive; negative [study B]

C/C=C/C=O
mutagenic call [9]: active; positive (structural and ploidy changes); also recorded: active; positive (structural changes) | mutagenic call [5]: inactive; negative and active; positive
